Measured values from publication PMC6891891.
Results are given in words; binding and its absence hold for the method and conditions named. For some assays here: In cells and extracts the contact can be indirect. Some entries that bind do so weakly or less than the wild type. Sequences can lack the tags named with a protein. Values belong to the binder of their own block, whether it stands above or below them.

Experiments:
[1] = target: T1, Dbf4, AD-fusion and BD-fusion for Y2H (S. cerevisiae) (UniProt P32325); experiment: two-hybrid; directed Y2H: pGAD-C1 (AD) and pGBD-C1 (BD) fusions cotransformed into the Y2HGold strain; HIS3 reporter, 8 mM 3-AT added in Figure 4D
T1 sequence: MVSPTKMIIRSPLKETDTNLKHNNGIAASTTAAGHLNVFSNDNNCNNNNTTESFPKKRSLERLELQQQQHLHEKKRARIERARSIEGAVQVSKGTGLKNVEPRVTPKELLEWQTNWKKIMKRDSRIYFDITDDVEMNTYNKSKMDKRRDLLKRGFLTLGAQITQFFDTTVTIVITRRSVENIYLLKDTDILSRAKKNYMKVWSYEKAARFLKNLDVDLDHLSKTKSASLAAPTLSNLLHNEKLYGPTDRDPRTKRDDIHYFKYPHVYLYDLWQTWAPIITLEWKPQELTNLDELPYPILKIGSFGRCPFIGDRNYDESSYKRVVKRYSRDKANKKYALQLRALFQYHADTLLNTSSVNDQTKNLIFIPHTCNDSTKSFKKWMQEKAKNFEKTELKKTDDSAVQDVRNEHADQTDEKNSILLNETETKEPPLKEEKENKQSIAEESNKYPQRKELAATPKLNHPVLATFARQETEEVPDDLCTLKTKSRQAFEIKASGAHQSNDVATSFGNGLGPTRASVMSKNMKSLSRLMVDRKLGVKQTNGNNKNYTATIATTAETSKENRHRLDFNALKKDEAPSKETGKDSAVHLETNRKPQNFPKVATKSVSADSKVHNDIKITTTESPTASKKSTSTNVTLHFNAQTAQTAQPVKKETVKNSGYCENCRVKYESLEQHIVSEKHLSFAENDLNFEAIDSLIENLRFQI

[2] = target: T2, Ulp2-FLAG (endogenous Ulp2 tagged C-terminally with FLAG) (S. cerevisiae) (UniProt P40537); experiment: co-IP; IP with anti-FLAG antibody and protein G Sepharose from native yeast extracts (150 mM NaCl, 10% glycerol, 1% NP-40, 50 mM Tris HCl pH 8.0, with inhibitors incl. 20 mM NEM), overnight at 4°C; endogenously tagged Ulp2-FLAG and Dbf4-PK
T2 sequence: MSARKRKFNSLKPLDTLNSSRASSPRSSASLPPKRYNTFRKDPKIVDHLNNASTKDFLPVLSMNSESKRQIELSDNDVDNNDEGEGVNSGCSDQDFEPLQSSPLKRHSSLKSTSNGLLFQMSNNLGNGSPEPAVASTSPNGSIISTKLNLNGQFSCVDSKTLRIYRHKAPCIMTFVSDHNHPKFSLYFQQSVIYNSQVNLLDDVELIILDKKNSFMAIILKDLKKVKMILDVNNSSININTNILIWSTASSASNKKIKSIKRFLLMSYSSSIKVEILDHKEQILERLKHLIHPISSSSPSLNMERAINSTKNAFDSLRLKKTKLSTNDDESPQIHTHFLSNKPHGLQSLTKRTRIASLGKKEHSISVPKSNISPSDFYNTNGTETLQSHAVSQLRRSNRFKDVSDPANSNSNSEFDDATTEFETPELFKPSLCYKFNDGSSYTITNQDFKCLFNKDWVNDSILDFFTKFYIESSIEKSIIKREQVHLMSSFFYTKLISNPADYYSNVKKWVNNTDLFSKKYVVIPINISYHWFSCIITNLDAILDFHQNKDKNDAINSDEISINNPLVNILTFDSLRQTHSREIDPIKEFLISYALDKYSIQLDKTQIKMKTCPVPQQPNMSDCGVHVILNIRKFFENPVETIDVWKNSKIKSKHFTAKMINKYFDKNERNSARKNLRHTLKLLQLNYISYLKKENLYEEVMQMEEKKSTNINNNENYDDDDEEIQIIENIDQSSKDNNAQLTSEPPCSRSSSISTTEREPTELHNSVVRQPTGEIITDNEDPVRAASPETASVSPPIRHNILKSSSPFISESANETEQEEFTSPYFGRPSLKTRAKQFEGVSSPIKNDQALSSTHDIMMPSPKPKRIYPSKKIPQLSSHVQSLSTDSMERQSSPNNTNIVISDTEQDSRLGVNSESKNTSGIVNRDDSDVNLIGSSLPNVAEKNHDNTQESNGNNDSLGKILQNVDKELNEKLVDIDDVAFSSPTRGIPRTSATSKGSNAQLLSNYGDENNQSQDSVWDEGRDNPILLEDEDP

binding [1]: no binding
B1: N-terminally truncated, catalytically inactive Ulp2 (Ulp2CD-N400), Y2H fusion (domain or fragment, UniProt P40537 401-1034)
chain: KDVSDPANSNSNSEFDDATTEFETPELFKPSLCYKFNDGSSYTITNQDFKCLFNKDWVNDSILDFFTKFYIESSIEKSIIKREQVHLMSSFFYTKLISNPADYYSNVKKWVNNTDLFSKKYVVIPINISYHWFSCIITNLDAILDFHQNKDKNDAINSDEISINNPLVNILTFDSLRQTHSREIDPIKEFLISYALDKYSIQLDKTQIKMKTCPVPQQPNMSDSGVHVILNIRKFFENPVETIDVWKNSKIKSKHFTAKMINKYFDKNERNSARKNLRHTLKLLQLNYISYLKKENLYEEVMQMEEKKSTNINNNENYDDDDEEIQIIENIDQSSKDNNAQLTSEPPCSRSSSISTTEREPTELHNSVVRQPTGEIITDNEDPVRAASPETASVSPPIRHNILKSSSPFISESANETEQEEFTSPYFGRPSLKTRAKQFEGVSSPIKNDQALSSTHDIMMPSPKPKRIYPSKKIPQLSSHVQSLSTDSMERQSSPNNTNIVISDTEQDSRLGVNSESKNTSGIVNRDDSDVNLIGSSLPNVAEKNHDNTQESNGNNDSLGKILQNVDKELNEKLVDIDDVAFSSPTRGIPRTSATSKGSNAQLLSNYGDENNQSQDSVWDEGRDNPILLEDEDP

binding [2]: binds
B2: Dbf4-PK (endogenous Dbf4 tagged C-terminally with PK) (protein, UniProt P32325 1-704)
chain: T1 sequence
